Several values for one entry are separate records, joined by “and”; a condition that tells them apart may be missing. Identical values can stand only once. About 18,000 (5.8%) of roughly 310,000 compounds were called active. The shares of active, inactive and inconclusive entries below differ from those in the screen. The call rests on the fitted dose curve; in most records, active means well fitted inhibition curve with a large enough effect; inconclusive means small, poorly fitted or top-dose-only effect, or another doubt; inactive means no such curve, though single readings can be large or run the other way. Potencies of inconclusive entries are doubtful fits and often do not repeat.
Assay: Primary qHTS for delayed death inhibitors of the malarial parasite plastid, 48 hour incubation
Details: P. falciparum luciferase growth in erythrocytes; series mostly up to 28.7 µM
Outline: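 Firefly luciferase activity from engineered P. falciparum reports growth; inhibitors lower the luminescent signal. Cultures contained 2% hematocrit erythrocytes at 0.1% final parasitemia.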
Potency means the concentration at half of the fitted maximal effect; tags describe the fitted curve by direction and shape.

Row | SMILES | Potency
1 | CC(=O)OCC(=O)[C@@]1(OC(C)=O)[C@@H](C)C[C@H]2[C@@H]3C[C@H](F)C4=CC(=O)C=C[C@]4(C)[C@@]3(F)[C@@H](O)C[C@@]21C | inconclusive: 19 µM [inhibitor, single point] and inconclusive: 14.7 µM [inhibitor, single point]
2 | Cc1cccc(N2CCN(C(=O)CNC(=O)C3CCCCC3)CC2)c1C | inconclusive: 18.5 µM [inhibitor, single point]
3 | COc1ccc(C(CNC(=O)c2ccc(N3CCCC3=O)cc2)N(C)C)cc1 (stereo not drawn) | inconclusive: 0.828 µM [inhibitor, partial curve, poor fit]
4 | CC1CCCC(NC(=S)Nc2cccc(S(=O)(=O)N(C)C)c2)C1C (stereo not drawn) | inconclusive: 9.28 µM [inhibitor, partial curve, poor fit]
5 | Cc1ccc(S(=O)(=O)Nc2ccc3c(c2)nc(CCN2CCCCC2)n3C)cc1 | inconclusive: 13.1 µM [inhibitor, partial curve, poor fit]
6 | COc1cc(C2CC(=O)C=C(O)C2)cc(OC)c1OC (stereo not drawn) | active: 5.86 µM
7 | CCn1nc(C(=O)NCc2nnc3ccccn23)c2ccccc2c1=O | inconclusive: 18.5 µM [inhibitor, single point]
8 | COc1cccc(NC(=O)CN(C)C(=O)/C=C/c2cn(-c3ccccc3)nc2-c2ccc(C)cc2)c1 | inconclusive: 11.7 µM [inhibitor, single point]
9 | CCOc1cc(Br)c(CN2C(=O)NC3(CCCCCC3)C2=O)cc1OCC | inactive
10 | O=C(C[n+]1cc(Br)cc2ccccc21)c1ccc(Br)cc1 | inactive
11 | COc1ccc(-c2nn(-c3ccccc3C)cc2CNC(C)c2cn(C)nc2C)cc1F (stereo not drawn) | inconclusive: 18.5 µM [inhibitor, single point]
12 | CC1CCN(CC(C)CNC(=O)c2cc(-c3ccccn3)nc3ccccc23)CC1 (stereo not drawn) | inconclusive: 0.415 µM [inhibitor, partial curve]
13 | [O-]/[N+](=C/c1ccco1)c1ccccc1 | inactive
14 | CC(=O)C12OC1CC1C3CCC4=CC(=O)CCC4(C)C3CCC12C (stereo not drawn) | inactive
15 | Cc1c2ccccc2c(C)c2c1ccc1ccccc12 | active: 0.928 µM
16 | CCCCC1CCC(C(=O)N(C)CC(=O)Nc2cccc(F)c2)CC1 (stereo not drawn) | inconclusive: 18.5 µM [inhibitor, single point]
17 | CC(=O)Cc1nsc(NC(=O)c2cn(-c3ccccc3)nc2-c2ccc(Br)cc2)n1 | inconclusive: 4.15 µM [inhibitor, partial curve]
18 | COC(=O)C1=C(C)Nc2ncnn2C1c1cccnc1 (stereo not drawn) | inactive
19 | CC(=O)Nc1cccc(OCC(=O)NC(C)c2ccc3ccccc3c2)c1 (stereo not drawn) | inactive
20 | Cc1ccc(C2(C)NC(=O)N(CC(=O)NNC(=O)c3cc(C)oc3C)C2=O)cc1 (stereo not drawn) | inactive
21 | Cc1cc(SCC(=O)OC(C)C(=O)N(C)c2ccccc2)nc2ccccc12 (stereo not drawn) | inconclusive: 18.5 µM [inhibitor, single point]
22 | COCCCN1C(=O)c2[nH]nc(-c3ccccc3O)c2C1c1cccc(Cl)c1 (stereo not drawn) | active: 9.28 µM

Row | SMILES | Potency
23 | CC(C(=O)Nc1ccc(S(=O)(=O)N2CCCC2)cc1)N1CCCC(C(N)=O)C1 (stereo not drawn) | inactive
24 | O=C(NCC(=O)N(Cc1ccccc1)C(C(=O)NC1CCCC1)c1ccncc1)c1ccco1 (stereo not drawn) | inconclusive: 4.65 µM [inhibitor, partial curve]
25 | O=C(Nc1ccc(C(=O)N2CCOCC2)cc1)c1cnn2c(C(F)F)cc(-c3ccccc3)nc12 | inconclusive: 6.57 µM [inhibitor, partial curve]
26 | COc1cc(OC)c(OC)cc1CN1CCN(Cc2cccc(F)c2)CC1 | inconclusive: 0.0329 µM [inhibitor, partial curve, poor fit]
27 | O=C1C2CCCCN2C(=O)N1CCCCN1CCN(c2ccccc2Oc2ccccc2)CC1 (stereo not drawn) | inconclusive: 4.65 µM [inhibitor, full curve, poor fit]
28 | COc1cccc(C(=O)Nc2c3c(nn2-c2cccc(C)c2C)CS(=O)C3)c1OC (stereo not drawn) | inconclusive: 10.4 µM [inhibitor, single point]
29 | CCC(C)(C)n1nnnc1C(c1ccc(OC)c(OC)c1)N1CCN(c2cccc(OC)c2)CC1 (stereo not drawn) | active: 7.38 µM
30 | CCNc1nc(NCC)n2c(SCC(=O)Nc3ccc(Br)cc3F)nnc2n1 | active: 11.7 µM
31 | CSCCCN1CCC(n2nccc2NC(=O)CCCc2ccccc2)CC1 | inconclusive: 18.5 µM [inhibitor, single point]
32 | CCOC(=O)N1CCN(C(=O)/C=C/c2ccc(C(C)(C)C)cc2)CC1 | inactive
33 | COC(CNS(=O)(=O)c1ccc(S(=O)(=O)NC2CC2)cc1)OC | inactive
34 | CCOc1ccccc1OCCCC(=O)N1CCN(S(=O)(=O)c2ccc(Cl)cc2)CC1 | active: 13.1 µM
35 | N=c1n(Cc2ccccc2)c2ccccc2n1CC(O)COc1ccc(Cl)cc1Cl (stereo not drawn) | inconclusive: 6.57 µM [inhibitor, partial curve]
36 | COc1ccccc1-c1nnc(SCc2nc3ccccc3[nH]2)n1C | inactive
37 | C/C=C/c1ccc(OCCCCOc2c(OC)cccc2OC)c(OC)c1 | inconclusive: 9.28 µM [inhibitor, single point]
38 | O=[N+]([O-])c1cccc(/C=C/c2nc3ccc([N+](=O)[O-])cc3[nH]2)c1 | active: 2.94 µM
39 | CCOC(=O)c1ccc(N=Nc2c(C)c(C#N)c(O)[nH]c2=O)cc1 | inconclusive: 0.0586 µM [inhibitor, full curve, poor fit]
40 | Nc1c(N(Cc2ccco2)C(=O)c2ccc(Br)cc2)c(=O)[nH]c(=O)n1Cc1ccccc1 | inconclusive: 4.15 µM [inhibitor, single point]
41 | COc1ccc(NC(=O)c2ccc(OC)c(S(=O)(=O)N3CCCCC3C)c2)cn1 (stereo not drawn) | inconclusive: 18.5 µM [inhibitor, single point]
42 | COc1ccccc1N1CC(C(=O)Nc2nnc(SCc3cccnc3)s2)CC1=O (stereo not drawn) | inconclusive: 18.5 µM [inhibitor, single point]
43 | c1ccc(-c2cc(-c3nn4c(-c5ccco5)nnc4s3)c3ccccc3n2)cc1 | active: 3.7 µM

Source: PubChem BioAssay AID504832 (National Center for Advancing Translational Sciences (NCATS), 2011)
